Drawing on PMC10668032, this text covers binding signal for 109 sequences.

Some of the results follow. At the low end of the ranking, values are background and their order means little.

The target of the experiment is SIX1 homeodomain (reference allele) (UniProt Q15475). The experiment in a line: universal protein binding microarray. The settings on record: Universal all-10-mer PBM (8x60K, AMADID 030236), 300 nM GST-tagged protein, Alexa Fluor 488 anti-GST; buffer, salt, pH and temperature not stated; high values mean tight binding; most listed sequences are background and not binding sites; double strand, one strand shown.
In the case of ATACGTAG, the binding signal is 0.276 E-score. Regarding ACATGGCC, the binding signal is -0.126 E-score. Next, GACAACTA: -0.295 E-score; CCGGCACC: 0.186 E-score. Next, CCAGTAGA: 0.0604 E-score; GCTACTAA: 0.0109 E-score. Next, AAAGAGTC: -0.345 E-score; CAATCGTA: -0.092 E-score. For CCCACCCG, the binding signal came out at 0.159 E-score. Next, ATTGAAGC: -0.121 E-score; AACTGCTG: -0.207 E-score. Next, TCTATCAA: -0.0326 E-score. To CCCTGCCC belongs -0.00646 E-score; to AACAATGC, -0.186 E-score.

Take ATGATAAG: the binding signal came to 0.0638 E-score. On to GCAAGTTA, for which the binding signal was -0.225 E-score. Next, GCATTCTA: 0.035 E-score; CCGACAGG: -0.0126 E-score.

For the sequence CAGTCATA, the binding signal is -0.0309 E-score. Next, CGTGTTCC: 0.0379 E-score. Next, CACCCGCA: 0.141 E-score; ATTAAATC: 0.0534 E-score. Next, AAGATTCT: -0.273 E-score. As for ACAGGAGA, the binding signal was 0.028 E-score. To ACGTTATC belongs 0.112 E-score; to AAAGCACG, -0.0788 E-score; to ACATAGGT, 0.0555 E-score. Next, CTGCAAGA: -0.0238 E-score. To GATCATGC belongs 0.242 E-score.

Take ACCCTGGG: the binding signal was found to be 0.0559 E-score. Consider AATACATC, for which the binding signal was determined as 0.204 E-score.

As to AATAGTCG, the binding signal worked out at 0.0223 E-score.

On to GCCGATCA, for which the binding signal amounted to 0.229 E-score. As to CTATGACC, the binding signal is -0.0351 E-score.

With AAGCAGGC, the binding signal was -0.0711 E-score. To GAGATACA belongs 0.332 E-score; to AACCAGTG, -0.0727 E-score. To CAGGCCTC belongs -0.153 E-score; to AGGCCAGC, -0.332 E-score; to CAAACCAG, -0.0636 E-score. To AGCAGATG belongs -0.0581 E-score; to CCTGGGAA, 0.0474 E-score.

CACTGTAC: the binding signal was -0.047 E-score. To ACAAGACT belongs -0.203 E-score; to AGAACGAG, -0.154 E-score. On to CGCTGTTA, for which the binding signal was -0.117 E-score. For the sequence GGCTTTGA, the binding signal is -0.101 E-score.

As for AGTGCTGA, the binding signal is -0.186 E-score.

Take CCAATGGC: the binding signal is -0.179 E-score. As for CGCTAGAG, the binding signal was -0.00983 E-score. As to CCGCGCTA, the binding signal is -0.0437 E-score. To CAGCTTCA belongs -0.0909 E-score; to AAAACTGG, -0.22 E-score; to ATCTATCA, 0.19 E-score. Next, AGCTAGGC: -0.134 E-score; ATCCTCTG: 0.276 E-score; AGAACCCG: 0.102 E-score. To ACTCACCA belongs 0.0206 E-score; to AAGCGTGG, -0.259 E-score. Turning to GAGGCTCC, the binding signal was -0.314 E-score. Next, TAATATTA: 0.161 E-score; CTAGGGCA: -0.17 E-score; TCCCACGA: 0.0911 E-score.

Regarding ATAGCGTG, the binding signal was 0.0286 E-score. Next, TGATTCAA: -0.0501 E-score; TACAGAAA: 0.00145 E-score; CCTCACCA: -0.0989 E-score. Next, AGTGACTA: -0.0807 E-score; ATTAATGA: 0.19 E-score. Next, GTTTCTGA: -0.0298 E-score. With TCACTCCA, the binding signal is -0.146 E-score. Next, CTGGCAAC: -0.101 E-score; GTCGCTAA: -0.266 E-score; GCTGGCTA: -0.103 E-score. In the case of ATTCTGAG, the binding signal was -0.0157 E-score.

On to GGCATCCC, for which the binding signal was -0.0557 E-score. To CCTAATCG belongs -0.0382 E-score; to ACCTCTTC, 0.116 E-score; to ATCGCCTA, 0.232 E-score. With ATCATCAA, the binding signal was 0.199 E-score. To AACAAATG belongs -0.204 E-score; to GACGTCTC, 0.163 E-score; to GAAGTCAC, -0.33 E-score. To CGTATTGA belongs 0.23 E-score. To GGGGGGCA belongs -0.103 E-score; to AAATCTGT, -0.214 E-score.

GGACGTCC: the binding signal was -0.108 E-score. Next, ACCGGTAC: 0.0184 E-score; CCTCAGAA: -0.124 E-score. Next, ACAAGGAC: -0.124 E-score. Next, ACTTGAAA: -0.127 E-score. Take CCCGCTGA: the binding signal was found to be 0.0663 E-score. Next, AGTCAACT: -0.152 E-score.

As to ATGAAGGC, the binding signal was -0.0809 E-score. Consider AACTGTCT, for which the binding signal is -0.0278 E-score.

With AAGAGTAC, the binding signal was -0.0921 E-score. Next, ACTCTTTG: -0.281 E-score; GGTGCAAC: -0.0175 E-score; CCAATGAA: -0.17 E-score.

For the sequence CTCAAATC, the binding signal was -0.152 E-score.

For the sequence CCCCAACC, the binding signal is -0.109 E-score.

Regarding AAGTGGCT, the binding signal is -0.254 E-score. To AGGTCAGC belongs 0.0296 E-score; to GCTCGGAC, -0.197 E-score.

For CTGCAATA, the binding signal was 0.0192 E-score. As for GATTAATA, the binding signal stood at 0.301 E-score. As for ACGTTGGG, the binding signal was -0.151 E-score.

As to ACCCGAGG, the binding signal worked out at 0.0485 E-score.

Regarding CCTCGCAA, the binding signal is -0.143 E-score.
